From PubChem BioAssay (NCATS)
The shares of active, inactive and inconclusive entries below differ from those in the screen. For part of these data: Potencies beside an inconclusive call are fits to weak or partial responses and may not hold up. Calls of active or inactive are those of the source. Unless noted, calls come from the whole dose curve; as a rule, active = well fitted curve in the direction sought with a large enough effect; inconclusive = small, poorly fitted or top-dose-only effect, or another doubt; inactive = no such curve, though single readings can be large; an effect the other way counts as inactive or inconclusive.

Legend:
[1] = Cell Viability - Jurkat (AID 426;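 active = dose-dependent loss of cell ATP signal giving a full or clear fitted curve, ranked by lower potency value; inconclusive = weak partial curve or response only at the top dose; inactive = no loss of viability signal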;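 note: potency is the fitted concentration of half-maximal effect; cells exposed to compound for 40 hours at 37 °C before ATP read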); settings: qHTS
Method in brief: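 Jurkat (Clone E6-1) cells, 5000/well in complete medium, exposed to compounds for 40 hr at 37C; intracellular ATP measured by CellTiter-Glo luminescence after 20 min at room temperature. AC50 from Hill fits.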

[2] = biological target: Cytochrome P450 3A4 (Homo sapiens) (UniProt P08684); test: qHTS Assay for Inhibitors and Substrates of Cytochrome P450 3A4 (AID 884); settings: recombinant CYP3A4, Luciferin-PPXE luminescence; series mostly up to 57.1 µM; note: % is set by controls: 0 for no effect and ±100 for the full control effect; nearly all actives have a fitted effect of over 50% in size
Sequence of UniProt P08684 (P08684 whole entry, looked up): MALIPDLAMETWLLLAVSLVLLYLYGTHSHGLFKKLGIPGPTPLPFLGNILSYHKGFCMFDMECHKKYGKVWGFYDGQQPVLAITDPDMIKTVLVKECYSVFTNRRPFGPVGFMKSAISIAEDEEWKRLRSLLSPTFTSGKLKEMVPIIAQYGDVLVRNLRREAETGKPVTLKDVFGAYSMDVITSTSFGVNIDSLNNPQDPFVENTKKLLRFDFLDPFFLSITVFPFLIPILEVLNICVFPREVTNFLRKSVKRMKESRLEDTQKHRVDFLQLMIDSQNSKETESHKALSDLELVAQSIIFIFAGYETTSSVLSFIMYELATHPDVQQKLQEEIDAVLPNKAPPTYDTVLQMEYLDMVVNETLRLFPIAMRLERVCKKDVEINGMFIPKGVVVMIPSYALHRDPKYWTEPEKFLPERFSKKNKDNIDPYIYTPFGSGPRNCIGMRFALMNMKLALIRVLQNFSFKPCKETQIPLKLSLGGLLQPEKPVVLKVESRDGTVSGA
Method in brief: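 20 nM human CYP3A4 with 25 uM Luciferin-PPXE (at KM) in 200 mM KPO4, preincubated 10 min with compound; NADPH regeneration started a 60 min RT reaction. Luciferin detected by luminescence, normalized to 57 uM ketoconazole as full inhibition.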

[3] = biological target: Peroxisome proliferator-activated receptor delta (Homo sapiens) (UniProt Q03181); test: qHTS assay for small molecule antagonists of peroxisome proliferator-activated receptor delta signaling (AID 588535; active = well fitted inhibition curve with a large enough effect in the signal ratio, with a control signal flat, not every such curve was filed as active; inconclusive = small, poorly fitted or top-dose-only effect, or effect the other way, or a change in a side signal; inactive = no such curve, though single readings can be large or run the other way; the % refers to the signal ratio); settings: HEK293T PPARd-UAS-bla, beta-lactamase FRET ratio, 18 h; activity change, negative = inhibition: at 76.7 µM (top of the series)
Sequence of UniProt Q03181 (Q03181 whole entry, looked up): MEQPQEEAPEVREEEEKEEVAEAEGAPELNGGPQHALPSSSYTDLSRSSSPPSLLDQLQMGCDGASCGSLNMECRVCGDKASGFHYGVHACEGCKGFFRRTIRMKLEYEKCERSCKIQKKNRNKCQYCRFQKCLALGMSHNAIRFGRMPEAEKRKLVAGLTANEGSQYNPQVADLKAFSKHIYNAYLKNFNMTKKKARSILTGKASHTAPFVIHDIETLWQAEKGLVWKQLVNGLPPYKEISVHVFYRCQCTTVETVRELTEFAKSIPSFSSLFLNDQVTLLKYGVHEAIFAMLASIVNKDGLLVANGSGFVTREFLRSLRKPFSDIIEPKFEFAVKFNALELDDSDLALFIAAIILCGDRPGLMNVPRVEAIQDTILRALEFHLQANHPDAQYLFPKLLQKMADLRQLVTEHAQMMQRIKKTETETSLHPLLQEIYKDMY
Method in brief: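 Antagonist-mode beta-lactamase reporter (GeneBLAzer PPAR-delta-UAS-bla) in HEK293T cells, 2% charcoal/dextran FBS, 4000 cells/well. Compound titrations, 18 h at 37 C; CCF4 ratio read, IC50 and efficacy from Hill fits.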

[4] = biological target: Peroxisome proliferator-activated receptor gamma (Homo sapiens) (UniProt P37231); test: qHTS assay for small molecule agonists of peroxisome proliferator-activated receptor gamma signaling (AID 588536; active = well fitted curve in the direction sought with a large enough effect in the signal ratio, with a control signal flat, not every such curve was filed as active; inconclusive = small, poorly fitted or top-dose-only effect, or effect the other way, or a change in a side signal; inactive = no such curve, though single readings can be large or run the other way; the % refers to the signal ratio;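 note: 0% = DMSO basal wells and 100% = rosiglitazone at 2 µM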); settings: HEK293 PPARg-UAS-bla, beta-lactamase ratio, 16 h; activation: at 76.7 µM (top of the series), percent of rosiglitazone response, DMSO as zero
Method in brief: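 PPAR-gamma-UAS-bla HEK293 cells in medium with 1% charcoal/dextran-treated FBS were exposed to compounds for 16 h at 37 C. Beta-lactamase activity was read with CCF4 substrate (405 nm excitation, 460/530 nm emission).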

[5] = biological target: Peroxisome proliferator-activated receptor gamma (Homo sapiens) (UniProt P37231); test: qHTS assay for small molecule antagonists of peroxisome proliferator-activated receptor gamma signaling (AID 588537; active = well fitted inhibition curve with a large enough effect in the signal ratio, with a control signal flat, not every such curve was filed as active; inconclusive = small, poorly fitted or top-dose-only effect, or effect the other way, or a change in a side signal; the % refers to the signal ratio; note: potency is the fitted concentration of half-maximal effect;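 note: reporter cells co-stimulated with 50 nM rosiglitazone agonist during compound treatment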; for activity, negative = inhibition: % of control where 0% means no effect); settings: HEK293 PPARg-UAS-bla, beta-lactamase ratio, antagonist mode; activity, negative = inhibition: at 76.8 µM (top of the series)
Method in brief: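 PPARγ-UAS-bla HEK293 cells (3000/well) in 1% charcoal/dextran-stripped FBS are treated with compound, then stimulated with 50 nM rosiglitazone for 16 h at 37 °C. Read-out is CCF4 β-lactamase fluorescence after 2 h at RT. IC50 comes from Hill fits normalised to rosiglitazone and DMSO.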

[6] = qHTS assay to identify small molecules that stimulate interleukin-8 (IL-8) secretion (AID 651758; active = well fitted activation curve with a large enough effect in the signal ratio; inconclusive = small, poorly fitted or top-dose-only effect, or effect the other way, or a change in a side signal; the % refers to the signal ratio; note: potency is the fitted concentration of half-maximal effect; for activation: 0% is about no effect); settings: HTRF ratio (665/615); activation: at 92.2 µM (top of the series)
Method in brief: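 THP-1 cells (2000/well) exposed to compound 16 h at 37 C; secreted IL-8 then detected by HTRF with cryptate- and XL665-labelled anti-IL-8 antibody pair after 1-3 h at room temperature.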

[7] = Cell Viability - Hek293 (AID 427;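 active = compounds whose dose-response curve shows a full or clear partial loss of cell viability, called from curve shape rather than a numeric limit; inconclusive = weak partial curves or an effect only at the top dose; inactive = no dose-dependent loss of viability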;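 note: potency is the fitted concentration of half-maximal effect; cells exposed to compound for 40 hours at 37 °C before reading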); settings: qHTS
Method in brief: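 Luminescent ATP read-out (CellTiter-Glo, 20 min RT) after 40 hr compound exposure at 37 °C in complete medium. Signal normalized to DMSO (basal) and 100 uM tamoxifen (100% inhibition); concentration-response fitted with the standard Hill equation to give AC50.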

[8] = Cell Viability - SK-N-SH (AID 435; calls by dose curve;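 note: potency is the fitted concentration of half-maximal effect; compound exposure lasted 40 h at 37 °C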); settings: SK-N-SH neuroblastoma cell viability qHTS
Method in brief: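 Luminescent ATP signal served as the viability read-out after 40 hours of compound treatment of human neuroblastoma SK-N-SH cells. Concentration-response data, scaled between DMSO and 100 uM tamoxifen, gave AC50 values by standard Hill modeling.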

[9] = biological target: Mitogen-activated protein kinase 10 (Mus musculus) (UniProt Q61831); test: JNK3 AlphaScreen Assay (AID 530; active = well fitted curve in either direction with a large enough effect, not every such curve was filed as active; inconclusive = small, poorly fitted or top-dose-only effect, or another doubt;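 note: kinase came from lysate of stimulated human HepG2 cells; signal reports phosphorylation of biotinylated GST-cJun 1-79 at Ser73 with 10 µM ATP; % is set by controls: 0 for no effect and ±100 for the full control effect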); settings: JNK3 lysate, c-Jun phosphorylation; activity change, negative = inhibition: at 57.1 µM (top of the series)
Method in brief: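 Pre-activated (IL-1β/TNFα) JNK3 in HepG2 lysates phosphorylates biotin-GST-cJun(1-79), 10 uM ATP; anti-phospho-cJun(Ser73) AlphaScreen read at room temperature, pH 7.6 Tris buffer. Compounds pre-incubated 15 min as titrations.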

[10] = Cell Viability - N2a (AID 540); settings: N2a mouse neuroblastoma cell viability; activity change, negative = cytotoxicity: at 92.2 µM (top of the series);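 note: plate controls were DMSO alone for no effect and tamoxifen control for full effect; nearly all actives have a fitted effect of over 45% in size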
Method in brief: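 Mouse neuroblastoma N2a cells, 1500/well, exposed to compounds 40 h at 37 °C in complete medium. Viability measured as cellular ATP by CellTiter-Glo luminescence; AC50 from Hill fits of concentration-response.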

[11] = Cell Viability - Renal Proximal Tubule (AID 545); settings: renal proximal tubule cells viability, primary cells of rat origin; activity change, negative = cytotoxicity: at 91.7 µM (top of the series); note: nearly all actives have a fitted effect of over 40% in size
Method in brief: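 Luminescent ATP signal (CellTiter-Glo) served as the viability read-out after 40 hr compound exposure of freshly isolated rat proximal tubule cells at 37 °C. Concentration-dependent ATP loss was fitted with the Hill equation to give AC50.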

[12] = Cell Viability - Mesenchymal (AID 546); settings: mesenchymal cells viability, qHTS; activity change, negative = cytotoxicity: at 91.7 µM (top of the series);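 note: cells exposed to compound for 40 hours before reading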
Method in brief: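 Human kidney mesenchymal cells from normal renal glomeruli, 1000 cells/well, rested 5 hr at 37 °C, then treated 40 hr at 37 °C in complete medium. Cellular ATP read by CellTiter-Glo luminescence; AC50 from Hill-equation fits.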

[13] = Cellular Toxicity (caspase-3) Jurkat (AID 655); settings: Jurkat caspase-3 activation, luminescence; caspase-3 activation: at 92.2 µM (top of the series), DMSO = 0%, tamoxifen = 100%;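 note: cells exposed to compound for 16 h at 37 °C before reading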
Method in brief: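 5000 Jurkat cells/well; compound 16 hr, 37 °C; Caspase-Glo 3/7 added, 20 min RT; luminescence read. Norm: DMSO = 0%, tamoxifen 100 uM = 100%. AC50, Hill model.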

[14] = Cellular Toxicity (caspase-3) Hek293 (AID 664); settings: HEK293 caspase-3 activation, DMSO = 0%, 100 µM tamoxifen = 100%; at 92.2 µM (top of the series);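 note: cells exposed to compound for 16 h at 37 °C before readout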
Method in brief: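 HEK293 cells in complete medium treated 16 h at 37 °C, then Caspase-Glo 3/7 luminescence read after 20 min at room temperature. Normalized to DMSO and 100 uM tamoxifen; AC50 from Hill fit of concentration-response.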

[15] = biological target: Cytochrome P450 3A4 (Homo sapiens) (UniProt P08684); test: qHTS Assay for Activators of Cytochrome P450 3A4 (AID 885); settings: recombinant CYP3A4, Luciferin-PPXE luminescence, 60 min; series mostly up to 57.1 µM; note: potency is the fitted concentration of half-maximal effect; nearly all actives have a fitted effect of over 65% in size
Method in brief: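 20nM CYP3A4 + 25uM Luciferin-PPXE (=KM), 200mM KPO4; cpd 10 min RT; NADPH regen, 60 min RT; stop w/ detection buffer, 20 min; luminescence. Normalized to 57 uM ketoconazole.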

[16] = MultiTox-Fluor Cytotoxicity Assay - LYMP1-001 - Live Cells (AID 947); settings: LYMP1-001 lymphoblastoid cells, live-cell protease fluorescence viability; series mostly up to 92.2 µM; note: potency is the fitted concentration of half-maximal effect
[17] = MultiTox-Fluor Cytotoxicity Assay - LYMP1-002 - Live Cells (AID 955); settings: LYMP1-002 lymphoblastoid live-cell protease fluorescence viability; series mostly up to 46.1 µM; note: potency is the fitted concentration of half-maximal effect
Method in brief: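 Human lymphoblastoid LYMP1-002 cells, 2500/well, treated 16 h at 37 C in complete medium. Live-cell protease activity via GF-AFC fluorescence (Ex/Em 405/510) after 60 min reagent incubation; AC50 from Hill fits.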

[18] = MultiTox-Fluor Cytotoxicity Assay - LYMP1-002 - Dead Cells (AID 960); settings: LYMP1-002 lymphoblastoid cells, dead-cell protease fluorescence; cytotoxicity (dead cells): at 46.1 µM (top of the series); note: nearly all actives have a fitted effect of over 60% in size; note: potency is the fitted concentration of half-maximal effect;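 for cytotoxicity (dead cells): 0% = DMSO and 100% = tetraoctylammonium bromide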
Method in brief: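 Human lymphoblastoid LYMP1-002 cells, 2500/well, treated 16 h at 37 C; dead-cell protease cleavage of bis-AAF-R110 read by fluorescence (485/520); normalized to DMSO and 15 uM tetraoctylammonium bromide; AC50 from Hill fit.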

[19] = Cell Viability - LYMP2-005 (AID 967); settings: LYMP2-005 lymphoblastoid cell viability; series mostly up to 92.2 µM;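 note: cells exposed to compound for 24 h at 37 °C; plate controls were DMSO only for no effect and 92 µM tetraoctylammonium bromide control for full effect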
Method in brief: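 Acute cytotoxicity is scored as a concentration-dependent drop in intracellular ATP in human lymphoblastoid LYMP2-005 cells after 24 h compound treatment. ATP is quantified by luciferase luminescence, and AC50 is derived by Hill-equation modelling.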

[20] = Cell Viability - LYMP2-014 (AID 983); settings: LYMP2-014 lymphoblastoid cells, viability qHTS; series mostly up to 92.2 µM;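 note: potency is the fitted concentration of half-maximal effect; cells exposed to compound for 24 h at 37 °C; nearly all actives have a fitted effect of over 50% in size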
Method in brief: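 LYMP2-014 human lymphoblastoid cells, 2500/well, treated 24 h at 37 C in complete medium; viability by CellTiter-Glo ATP luminescence after 30 min at room temperature. AC50 from Hill fits of qHTS concentration-response; tetraoctylammonium bromide positive control.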

[21] = qHTS assay for small molecule agonists of the antioxidant response element (ARE) signaling pathway measured by Nrf2-dependant transcriptional activity (AID 720636; active = well fitted curve in the direction sought with a large enough effect in the repeat runs; inconclusive = weak or mixed curves; inactive = no such curve, though single readings can be large; an effect the other way counts as inactive or inconclusive; note: potency is the fitted concentration of half-maximal effect); settings: ARE-luc HepG2, Nrf2 luciferase reporter, 16 h; series mostly up to 92.4 µM
Method in brief: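 ONE-Glo luminescence, read 30 min after reagent addition at room temperature, reflected ARE reporter activity in HepG2 cells that had been incubated with compound for 16 hr at 37 C in 1% dialyzed FBS.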

[22] = qHTS assay for small molecule antagonists of the retinoid-related orphan receptor gamma (ROR-gamma) signaling pathway - cell viability counter screen (AID 720652; active = well fitted curve in the direction sought with a large enough effect in the repeat runs; inconclusive = weak or mixed curves; inactive = no such curve, though single readings can be large; an effect the other way counts as inactive or inconclusive;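 note: potency is the fitted concentration of half-maximal effect; compound exposure lasted 16 hr before ATP read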); settings: RORgamma reporter cell line viability counter screen; series mostly up to 92.2 µM
Method in brief: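 CHO cells carrying TET-inducible ROR and RORE-luciferase reporter, plated 5 hr, then dosed with compound plus doxycycline. After 16 hr at 37 C, viability read as intracellular ATP by CellTiter-Glo luminescence.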

[23] = Cell Viability - LYMP2-022 (AID 987); settings: LYMP2-022 lymphoblastoid cell viability; series mostly up to 92.2 µM;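 note: cells exposed to compound for 24 hr; 0% = DMSO alone and full effect = tetraoctylammonium bromide at 92 µM; nearly all actives have a fitted effect of over 55% in size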
Method in brief: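 LYMP2-022 lymphoblastoid cells (2500/well, complete medium) were treated with compounds for 24 hours at 37 C; intracellular ATP was then read by CellTiter-Glo luminescence after 30 min at room temperature. AC50 values were derived from Hill-equation fits.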

[24] = biological target: Estrogen receptor (Homo sapiens) (UniProt P03372); test: qHTS assay for small molecule antagonists of estrogen receptor alpha signaling (AID 588513; active = well fitted curve in the direction sought with a large enough effect in the signal ratio, with a control signal flat, not every such curve was filed as active; inconclusive = small, poorly fitted or top-dose-only effect, or effect the other way, or a change in a side signal; inactive = no such curve, though single readings can be large or run the other way; the % refers to the signal ratio; note: % is set by controls: 0 for no effect and ±100 for the full control effect); settings: ER-alpha-UAS-bla HEK293, beta-lactamase ratio, antagonist mode; activity, negative = inhibition: at 76.9 µM (top of the series) unless noted
Sequence of UniProt P03372 (P03372 whole entry, looked up): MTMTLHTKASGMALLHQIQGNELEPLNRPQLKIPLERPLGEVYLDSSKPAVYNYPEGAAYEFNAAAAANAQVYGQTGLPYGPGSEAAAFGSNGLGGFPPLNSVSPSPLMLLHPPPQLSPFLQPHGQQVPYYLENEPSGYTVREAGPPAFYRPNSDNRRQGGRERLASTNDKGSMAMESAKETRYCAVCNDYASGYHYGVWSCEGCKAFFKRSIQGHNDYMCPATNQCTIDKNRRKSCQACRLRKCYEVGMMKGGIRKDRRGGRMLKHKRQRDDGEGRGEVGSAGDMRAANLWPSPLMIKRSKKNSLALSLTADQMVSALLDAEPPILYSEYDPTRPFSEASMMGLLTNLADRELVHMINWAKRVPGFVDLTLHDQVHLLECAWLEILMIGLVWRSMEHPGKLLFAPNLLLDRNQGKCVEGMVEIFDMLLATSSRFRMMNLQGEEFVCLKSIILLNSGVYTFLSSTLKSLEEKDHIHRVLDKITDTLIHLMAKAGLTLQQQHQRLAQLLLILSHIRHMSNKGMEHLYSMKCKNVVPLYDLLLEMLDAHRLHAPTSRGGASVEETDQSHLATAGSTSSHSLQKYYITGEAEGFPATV
Method in brief: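 Fluorescence from CCF4 substrate after 2 h at room temperature gave reporter activity; cells had been exposed to compound and 0.5nM 17-beta-estradiol for 18 h at 37 C. Hill-equation fitting yielded IC50 and maximal response.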

[25] = biological target: Estrogen receptor (Homo sapiens) (UniProt P03372); test: qHTS assay for small molecule agonists of estrogen receptor alpha signaling (AID 588514; calls by dose curve;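 note: 0% = vehicle only and 100% = reference agonist; nearly all actives have a fitted effect of over 70% in size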); settings: ER-alpha-UAS-bla HEK293, beta-lactamase ratio, 18 h; activation: at 76.8 µM (top of the series), percent of full estradiol response, vehicle zero
Method in brief: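 ER-alpha-UAS-bla GripTite HEK293 cells, 5000/well in 2% charcoal/dextran-stripped FBS medium, treated with compound titrations 18 h at 37 C. CCF4 beta-lactamase read by fluorescence after 2 h RT; normalised to 20 nM 17-beta-estradiol (100%) and DMSO (0%), Hill fit for EC50 and efficacy.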
Tags give direction and shape of the fitted curve or compound fluorescence and quenching.

CCCCC(CC)C(=O)O (stereo not given)
inconclusive: activation [6] -5.48%
inactive: Potency [1] > 92 µM | Potency [2] | Potency [3] | Potency [4] | Potency [5]

C/C=C1/C(=O)C[C@H]2[C@@H]3CCC4=CC(=O)CC[C@]4(C)[C@H]3CC[C@]12C
inactive: Potency [9] | Potency [19]
inconclusive: Potency [7] 62.9 µM [partial curve] | Potency [8] 54.2 µM [partial curve] | activity change, negative = cytotoxicity [10] -37.8% | activity change, negative = cytotoxicity [11] -64.4% | activity change, negative = cytotoxicity [12] -32.9% | caspase-3 activation [13] 31.9% | caspase-3 activation [14] 79.5% | Potency [16] 79.4 µM [cytotoxic, partial curve, poor fit] | Potency [17] 31.6 µM [cytotoxic, partial curve] | Potency [20] 79.4 µM [cytotoxic, partial curve, poor fit] | Potency [6] 66.8 µM [inhibitor, single point] | Potency [21] 42.2 µM [activator, partial curve] | Potency [22] 66.8 µM [cytotoxic, single point]
active: Potency [15] 1 µM | Potency [18] 31.6 µM

Cc1cc(C(=O)O)ccc1[N+](=O)[O-]
inconclusive: activation [25] 52.3% | Potency [5] 44.7 µM [activator, partial curve, poor fit]
inactive: Potency [7] > 92 µM | Potency [18] | Potency [23] | Potency [24] | Potency [6]
